About 6,400 (1.6%) of roughly 410,000 compounds were called active. This list was built around the results that the source calls inconclusive (neither active nor inactive); the mix of calls is not that of the screen. Calls come from the whole dose curve; as a rule, active = well fitted inhibition curve with a large enough effect; inconclusive = small, poorly fitted or top-dose-only effect; inactive = no such curve, though single readings can be large or run the other way. No potency is given beside an inconclusive call; the fits are too rough.
Each molecule was assayed against Glucagon-like peptide 1 receptor (Homo sapiens) (UniProt P43220) (assay: qHTS of GLP-1 Receptor Inverse Agonists (Inhibition Mode)). Conditions: HEK293 GLP-1R CRE-luciferase, luminescence, 24 h, GLP-1R form is constitutively active; series mostly up to 38.3 µM.
UniProt P43220, sequence (P43220 whole entry, looked up): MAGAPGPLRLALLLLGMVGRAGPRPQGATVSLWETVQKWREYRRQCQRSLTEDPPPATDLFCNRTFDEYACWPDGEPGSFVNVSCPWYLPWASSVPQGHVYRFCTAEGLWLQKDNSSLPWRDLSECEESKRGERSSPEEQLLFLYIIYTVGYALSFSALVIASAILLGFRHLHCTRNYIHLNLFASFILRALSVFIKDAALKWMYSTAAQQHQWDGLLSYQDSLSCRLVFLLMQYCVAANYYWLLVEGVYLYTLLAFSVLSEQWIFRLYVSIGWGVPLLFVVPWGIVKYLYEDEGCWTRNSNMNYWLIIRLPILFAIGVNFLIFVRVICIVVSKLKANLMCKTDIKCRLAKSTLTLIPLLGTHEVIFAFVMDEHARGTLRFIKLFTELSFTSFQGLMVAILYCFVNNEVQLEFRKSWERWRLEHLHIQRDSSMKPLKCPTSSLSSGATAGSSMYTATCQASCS
Summary of the method: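 Using stably transfected HEK293 (constitutively active GLP-1R, cAMP-luciferase reporter), compounds were incubated 24 hr and luciferase measured by luminescence.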
Note: nearly all actives have a fitted effect of over 55% in size.
Potency is the fitted concentration of half-maximal effect; tags give direction and shape of the fitted curve.

SMILES	Potency
N#C/C(=C\c1c(F)cccc1Cl)c1nn(-c2ccccc2)c(-n2cccc2)c1C#N	inconclusive [inhibitor, full curve, poor fit]
CCCCN1CCc2c1nc1ccc(Br)cc1c2N	inconclusive [inhibitor, single point]
CCOC(=O)c1cc(-c2ccccc2)n(CCC(=O)N2CCN(c3ccc(OC)cc3)CC2)c1C	inconclusive [inhibitor, partial curve, poor fit]
CC1=CC(C)(C)N(C(=O)c2ccccc2)c2ccccc21	inconclusive [inhibitor, single point]
O=C(Nc1ccc(F)cc1)N1CCCN(c2ccc(C(F)(F)F)cn2)CC1	inconclusive [inhibitor, single point]
COc1ccc(-c2cc(C(F)(F)F)n3nc(C(=O)NCc4ccco4)cc3n2)cc1OC	inconclusive [inhibitor, single point]
Cc1ccc(C)c(NC(=O)CSc2cn(CC(=O)N3CCCC3)c3ccccc23)c1	inconclusive [inhibitor, single point]
Cc1cccc(NC(=O)COc2ccc3c(c2)CCC3)n1	inactive
COc1ccc(OC)c(NC(=O)C(=O)NCCC2=CCCCC2)c1	inconclusive [inhibitor, single point]
COc1ccc(C(=O)C2CCCN(Cc3ccc4c(c3)OCCO4)C2)cc1F (configuration not stated)	inconclusive [inhibitor, single point]
Cc1ccc(S(=O)(=O)N(CCCO)CC(O)CON=C2c3ccccc3-c3ccccc32)cc1 (configuration not stated)	inconclusive [inhibitor, partial curve, poor fit]
COCCn1c(=N)c(S(=O)(=O)c2ccc(Br)cc2)cc2c(=O)n3ccccc3nc21	inactive
COc1cccc(N(C(=O)c2csnn2)C(C(=O)NC2CCCC2)c2ccccc2)c1 (configuration not stated)	inactive
O=C(Nc1ccc(F)c(F)c1)C1CCN(S(=O)(=O)c2cccs2)CC1	inconclusive [inhibitor, single point]
CSc1nc(C(=O)N2CCCC(C(=O)c3ccc(Cl)cc3)C2)cs1 (configuration not stated)	inconclusive [inhibitor, partial curve, poor fit]
O=C(c1ccc2ccccc2c1)C1CCCN(C(=O)c2cccnc2)C1 (configuration not stated)	inactive
COc1cc(NC(=O)CSCc2cnn(-c3ccccc3)c2-n2cccc2)cc(OC)c1	active: 3.16 µM
CC(C)=CC(=O)OCC(=O)Nc1ccc(SC(F)F)cc1	inconclusive [inhibitor, single point]
CN(C(=O)COC(=O)/C=C/c1cccs1)C1CCCCC1	inconclusive [inhibitor, single point]
CCCc1nc2ccc(Cl)cn2c1Cc1ccsc1	inconclusive [inhibitor, single point]
O=C(N/N=C/c1cccnc1)c1ccc2c(c1)OCO2	inconclusive [inhibitor, partial curve, poor fit]

SMILES	Potency
CN(C)CC(O)COC(c1ccccc1)c1ccccc1 (configuration not stated)	inconclusive [inhibitor, partial curve, poor fit]
Cc1c(NC(=O)c2ccc(CN3CCc4ccccc4C3)cc2)c(=O)n(-c2ccccc2)n1C	inactive
CCc1nc(SCC(=O)N2c3ccccc3CC2C)c2c(C)c(C)sc2n1 (configuration not stated)	inconclusive [inhibitor, single point]
O=C(NCCCc1ccccc1)C(=O)NCC1OCCN1S(=O)(=O)c1ccc(F)cc1 (configuration not stated)	inconclusive [inhibitor, partial curve, poor fit]
O=C(NCc1ccccc1)C(c1cc2ccccc2o1)n1c(=O)c(-c2ccccc2)nc2ccccc21 (configuration not stated)	inconclusive [inhibitor, partial curve]
CCOc1ccccc1NC(=O)c1cccc2c1C(=O)N(C1CCCCC1)C2	inactive
CCc1ccc(OCC(=O)N/N=C(\C)c2ccc3c(c2)OCCO3)cc1	inactive
Cc1ccc(NS(=O)(=O)c2cccc(C(=O)Nc3cc(C)on3)c2)cc1	inconclusive [inhibitor, partial curve, poor fit]
O=C1CCCC(O)=C1N=Nc1ccc2c(c1)OCO2	inactive
Cc1ccc(CNC(=O)CCSCc2cccc(F)c2)cc1	inconclusive [inhibitor, single point]
O=C(NC1CCCC1)C1C(c2ccc(C(F)(F)F)cc2)=Nc2ccccc2N1C(=O)c1ccco1 (configuration not stated)	inconclusive [inhibitor, single point]
COCCNC(=O)/C(C#N)=C/c1cc(C(C)C)c(OC)cc1C	inconclusive [inhibitor, single point]
Cc1cccc(Cn2c(CN3CCC(C(=O)NCCc4ccccc4)CC3)cc3ccccc32)c1	inconclusive [inhibitor, single point]
Cc1ccc(CSCC(=O)N2CCN(Cc3ccc4c(c3)OCO4)CC2)cc1	inconclusive [inhibitor, partial curve, poor fit]
CCN(c1cccc(C)c1)S(=O)(=O)c1nnc(NC(=O)c2cccs2)s1	inconclusive [inhibitor, single point]
O=C1CC(/C=C/c2ccc(Cl)cc2)=Nc2ccccc2N1	inconclusive [inhibitor, partial curve]
Cn1c(Nc2cccc(Cl)c2)nc2ccccc21	inconclusive [inhibitor, single point]
O=S(=O)(c1ccccc1)N1CCN(c2ncnc3scc(-c4ccccc4)c23)CC1	inconclusive [inhibitor, partial curve, poor fit]
CC(C)CC(c1nnnn1Cc1ccco1)N1CCN(c2cccc(Cl)c2)CC1 (configuration not stated)	active: 10 µM
Cc1ccc(NS(=O)(=O)c2ccc(OCC(=O)Nc3cccc([N+](=O)[O-])c3)c(C)c2)cc1	active: 10 µM
CCOC(=O)Nc1ccc2c(c1)N(C(=O)CN)c1ccccc1CC2	inconclusive [inhibitor, single point]
